# Assay results from the supplement of paper PMC4967469.
# By IC50 is meant the dose at which the fit gives 50% viability; a fit beyond the top or the lowest dose is shown as a bound at that dose. For AUC the same curve is integrated over the 256-fold range of doses and scaled to a fraction; the more sensitive the line, the further below 1. For part of these data: Any top dose called inferred was derived from the fitted curves, not read from the paper.
# Legend:
# Experiment in all cases: Viability of human cancer cell lines after 72 h of drug (GDSC screen)
# Roscovitine = compound: CC[C@H](CO)Nc1nc(NCc2ccccc2)c2ncn(C(C)C)c2n1 [Roscovitine]; details: top dose 16 µM; top dose inferred
# Experimental: (§1)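 Human cancer cell lines in 384-well plates, medium with 10% serum, drug for 72 h over a 256-fold dose range (nine 2-fold or five 4-fold steps up to the top dose). Adherent lines were fixed and stained with the nucleic acid dye Syto60, suspension lines read with resazurin; signal relative to control wells, capped at 0 and 100%. One two-parameter sigmoid per drug and line, fitted in a mixed model over all curves with the slope shared within a line.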
# IOX2 = compound: O=C(O)CNC(=O)c1c(O)c2ccccc2n(Cc2ccccc2)c1=O [IOX2]; details: top dose 0.1 µM; top dose inferred
# Experimental: as §1
# Mitomycin C = compound: CO[C@@]12[C@H](COC(N)=O)C3=C(C(=O)C(C)=C(N)C3=O)N1C[C@@H]1N[C@@H]12 [Mitomycin C]; details: top dose 16 µM
# Experimental: as §1
# Bosutinib = compound: COc1cc(Nc2c(C#N)cnc3cc(OCCCN4CCN(C)CC4)c(OC)cc23)c(Cl)cc1Cl [Bosutinib]; details: top dose 2 µM
# Experimental: as §1
# NVP-BHG712 = compound: Cc1ccc(C(=O)Nc2cccc(C(F)(F)F)c2)cc1Nc1nc(-c2cccnc2)nc2c1cnn2C [NVP-BHG712]; details: top dose 10.24 µM; top dose inferred
# Experimental: as §1
# Midostaurin = compound: CO[C@@H]1[C@H](N(C)C(=O)c2ccccc2)C[C@H]2O[C@]1(C)n1c3ccccc3c3c4c(c5c6ccccc6n2c5c31)C(=O)NC4 [Midostaurin]; details: top dose 0.512 µM; top dose inferred
# Experimental: as §1
cell line,measurement,setting,value
"ATN-1 (T-cell lymphoblastic leukaemia, suspension)",AUC,Roscovitine,0.936
same,IC50,Roscovitine,> 16 µM
same,AUC,IOX2,0.986
same,IC50,IOX2,> 100 nM
same,AUC,Mitomycin C,0.288
same,IC50,Mitomycin C,264 nM
same,AUC,Bosutinib,0.765
same,IC50,Bosutinib,689 nM
same,AUC,NVP-BHG712,0.899
same,IC50,NVP-BHG712,> 10.2 µM
"BC-3 (B-cell lymphoma, suspension)",AUC,Roscovitine,0.9
same,IC50,Roscovitine,> 16 µM
same,AUC,Mitomycin C,0.267
same,IC50,Mitomycin C,237 nM
same,AUC,Midostaurin,0.881
same,IC50,Midostaurin,436 nM
same,AUC,NVP-BHG712,0.928
same,IC50,NVP-BHG712,> 10.2 µM
"CAL-148 (breast, suspension)",AUC,Roscovitine,0.95
same,IC50,Roscovitine,> 16 µM
same,AUC,Mitomycin C,0.106
same,IC50,Mitomycin C,< 62.5 nM
same,AUC,Midostaurin,0.93
same,IC50,Midostaurin,> 512 nM
same,AUC,NVP-BHG712,0.984
same,IC50,NVP-BHG712,> 10.2 µM
"CMK (acute myeloid leukaemia, suspension)",AUC,Roscovitine,0.949
same,IC50,Roscovitine,> 16 µM
same,AUC,IOX2,0.99
same,IC50,IOX2,> 100 nM
same,AUC,Mitomycin C,0.095
same,IC50,Mitomycin C,63.5 nM
same,AUC,Bosutinib,0.975
same,IC50,Bosutinib,> 2000 nM
same,AUC,NVP-BHG712,0.923
same,IC50,NVP-BHG712,> 10.2 µM
"COLO-829 (melanoma, adherent)",AUC,Roscovitine,0.973
same,IC50,Roscovitine,> 16 µM
same,AUC,IOX2,0.92
same,IC50,IOX2,> 100 nM
same,AUC,Mitomycin C,0.584
same,IC50,Mitomycin C,1890 nM
same,AUC,Midostaurin,0.919
same,IC50,Midostaurin,> 512 nM
same,AUC,NVP-BHG712,0.873
same,IC50,NVP-BHG712,> 10.2 µM
"DOHH-2 (B-cell lymphoma, suspension)",AUC,Roscovitine,0.936
same,IC50,Roscovitine,> 16 µM
same,AUC,Mitomycin C,0.17
same,IC50,Mitomycin C,102 nM
same,AUC,Midostaurin,0.923
same,IC50,Midostaurin,> 512 nM
same,AUC,Bosutinib,0.878
same,IC50,Bosutinib,1960 nM
"EHEB (lymphoid neoplasm, suspension)",AUC,Roscovitine,0.923
same,IC50,Roscovitine,> 16 µM
same,AUC,IOX2,0.975
same,IC50,IOX2,> 100 nM
same,AUC,Mitomycin C,0.445
same,IC50,Mitomycin C,660 nM
same,AUC,Midostaurin,0.953
same,IC50,Midostaurin,> 512 nM
same,AUC,Bosutinib,0.898
same,IC50,Bosutinib,> 2000 nM
"ES1 (Ewing sarcoma, adherent)",AUC,Roscovitine,0.948
same,IC50,Roscovitine,> 16 µM
same,AUC,IOX2,0.97
same,IC50,IOX2,> 100 nM
same,AUC,Mitomycin C,0.069
same,IC50,Mitomycin C,< 62.5 nM
same,AUC,Midostaurin,0.879
same,IC50,Midostaurin,511 nM
same,AUC,Bosutinib,0.877
same,IC50,Bosutinib,1950 nM
"ES3 (Ewing sarcoma, adherent)",AUC,Roscovitine,0.918
same,IC50,Roscovitine,> 16 µM
same,AUC,IOX2,0.983
same,IC50,IOX2,> 100 nM
same,AUC,Mitomycin C,0.078
same,IC50,Mitomycin C,< 62.5 nM
same,AUC,Midostaurin,0.931
same,IC50,Midostaurin,> 512 nM
same,AUC,NVP-BHG712,0.926
same,IC50,NVP-BHG712,> 10.2 µM
"ES4 (Ewing sarcoma, adherent)",AUC,Roscovitine,0.947
same,IC50,Roscovitine,> 16 µM
same,AUC,IOX2,0.979
same,IC50,IOX2,> 100 nM
same,AUC,Mitomycin C,0.093
same,IC50,Mitomycin C,< 62.5 nM
same,AUC,Midostaurin,0.914
same,IC50,Midostaurin,> 512 nM
same,AUC,Bosutinib,0.783
same,IC50,Bosutinib,975 nM
"ES5 (Ewing sarcoma, adherent)",AUC,Roscovitine,0.98
same,IC50,Roscovitine,> 16 µM
same,AUC,IOX2,0.975
same,IC50,IOX2,> 100 nM
same,AUC,Mitomycin C,0.545
same,IC50,Mitomycin C,1350 nM
same,AUC,Midostaurin,0.92
same,IC50,Midostaurin,> 512 nM
same,AUC,NVP-BHG712,0.869
same,IC50,NVP-BHG712,> 10.2 µM
"ES7 (Ewing sarcoma, adherent)",AUC,Roscovitine,0.974
same,IC50,Roscovitine,> 16 µM
same,AUC,IOX2,0.982
same,IC50,IOX2,> 100 nM
same,AUC,Mitomycin C,0.055
same,IC50,Mitomycin C,< 62.5 nM
same,AUC,Midostaurin,0.86
same,IC50,Midostaurin,446 nM
same,AUC,Bosutinib,0.915
same,IC50,Bosutinib,> 2000 nM
